Source: the supplement of paper PMC4967469
The IC50 comes from the fitted curve, where viability falls to half of the control; fits outside the tested doses are given as limits. AUC sums up the same curve from the lowest dose to the 256-fold higher top dose; values near 1 show little effect. For some assays here: A top dose marked as inferred comes from the curve model; the source does not state it. For some assays here: Where an entry number is given, a second screen of the drug exists; the two often differ.

Assays:
Assay in all cases: Viability of human cancer cell lines after 72 h of drug (GDSC screen)
Tretinoin = compound: CC1=C(/C=C/C(C)=C/C=C/C(C)=C/C(=O)O)C(C)(C)CCC1 [Tretinoin]; conditions: top dose 10 µM; top dose inferred
Procedure: (§1)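 Human cancer cell lines in 384-well plates, medium with 10% serum, drug for 72 h over a 256-fold dose range (nine 2-fold or five 4-fold steps up to the top dose). Adherent lines were fixed and stained with the nucleic acid dye Syto60, suspension lines read with resazurin; signal relative to control wells, capped at 0 and 100%. One two-parameter sigmoid per drug and line, fitted in a mixed model over all curves with the slope shared within a line.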

GSK690693 = compound: CCn1c(-c2nonc2N)nc2c(C#CC(C)(C)O)ncc(OC[C@H]3CCCNC3)c21 [GSK690693]; conditions: top dose 10.24 µM; top dose inferred
Procedure: as §1

UNC0638 = compound: COc1cc2c(NC3CCN(C(C)C)CC3)nc(C3CCCCC3)nc2cc1OCCCN1CCCC1 [UNC0638]
Procedure: as §1

WH-4-023 = compound: COc1ccc(N(C(=O)Oc2c(C)cccc2C)c2ccnc(Nc3ccc(N4CCN(C)CC4)cc3)n2)c(OC)c1 [WH-4-023]; conditions: top dose 5.12 µM; top dose inferred
Procedure: as §1

BX-795 = compound: O=C(NCCCNc1nc(Nc2cccc(NC(=O)N3CCCC3)c2)ncc1I)c1cccs1 [BX-795]; conditions: top dose 5 µM; top dose inferred
Procedure: as §1

PI-103 = compound: Oc1cccc(-c2nc(N3CCOCC3)c3oc4ncccc4c3n2)c1 [PI-103]; conditions: top dose 10.24 µM
Procedure: as §1

SB-505124 = compound: Cc1cccc(-c2[nH]c(C(C)(C)C)nc2-c2ccc3c(c2)OCO3)n1 [SB-505124]; conditions: top dose 10 µM; top dose inferred
Procedure: as §1

[1] = top dose 40 µM, screen: GDSC drug entry 245
[2] = top dose 20 µM, screen: GDSC drug entry 1236, top dose inferred

Cell Line	AUC (Tretinoin)	IC50 (Tretinoin) [µM]	AUC (GSK690693)	IC50 (GSK690693) [µM]	AUC (UNC0638; [1])	IC50 (UNC0638; [1]) [µM]	AUC (WH-4-023)	IC50 (WH-4-023) [µM]	AUC (BX-795)	IC50 (BX-795) [µM]	AUC (PI-103)	IC50 (PI-103) [µM]	AUC (UNC0638; [2])	IC50 (UNC0638; [2]) [µM]	AUC (SB-505124)	IC50 (SB-505124) [µM]
BB30-HNC (head and neck, adherent)	0.959	> 10	0.929	> 10.2	0.8	18.9	0.711	1.24	0.838	3.28	0.51	0.682	–	–	–	–
BB65-RCC (kidney, adherent)	0.968	> 10	0.979	> 10.2	0.876	> 40	0.763	2.12	–	–	0.805	6.13	0.966	> 20	0.972	> 10
BT-474 (breast, adherent)	0.983	> 10	–	–	0.655	7.1	0.976	> 5.12	0.974	> 5	0.407	0.344	0.815	12.7	0.924	> 10
DJM-1 (skin, adherent)	0.949	> 10	0.989	> 10.2	0.989	> 40	0.966	> 5.12	0.893	> 5	0.865	8.9	–	–	–	–
DOHH-2 (B-cell lymphoma, suspension)	0.894	> 10	–	–	–	–	0.112	< 0.02	0.754	1.65	–	–	–	–	–	–
EHEB (lymphoid neoplasm, suspension)	0.804	8.03	–	–	–	–	0.807	4.26	0.955	> 5	–	–	0.815	18.2	0.941	> 10
GA-10 (Burkitt lymphoma, suspension)	0.961	> 10	–	–	–	–	0.301	0.0982	0.91	> 5	–	–	0.646	2.95	0.958	> 10
GAK (melanoma, adherent)	0.976	> 10	0.99	> 10.2	0.82	21.6	0.989	> 5.12	0.975	> 5	–	–	0.875	18.1	0.967	> 10
GCIY (stomach, adherent)	0.98	> 10	0.971	> 10.2	0.964	> 40	0.651	0.887	0.907	> 5	0.751	3.75	–	–	–	–
HH (T-cell leukaemia, suspension)	0.672	2.23	0.656	2.01	0.474	2.07	0.877	> 5.12	0.798	3.33	–	–	0.735	7.47	0.922	> 10
IM-9 (myeloma, suspension)	0.991	> 10	–	–	–	–	0.989	> 5.12	0.975	> 5	–	–	0.83	10.2	0.974	> 10
JSC-1 (B-cell lymphoma, suspension)	0.973	> 10	0.925	> 10.2	0.503	2.55	0.985	> 5.12	0.84	3.38	0.313	0.193	–	–	–	–
K5 (thyroid, adherent)	0.988	> 10	0.968	> 10.2	0.797	17.9	0.93	> 5.12	0.858	3.82	–	–	0.871	17.5	0.972	> 10
KASUMI-1 (acute myeloid leukaemia, suspension)	0.93	> 10	0.322	0.204	–	–	0.973	> 5.12	–	–	0.09	< 0.04	0.728	5.57	0.96	> 10
KMS-12-BM (myeloma, suspension)	0.833	4.95	0.829	4.91	0.671	6.79	0.983	> 5.12	–	–	0.236	0.131	–	–	–	–
LB647-SCLC (small cell lung carcinoma, semi-adherent)	0.944	> 10	–	–	0.698	9.71	0.96	> 5.12	0.804	2.86	–	–	0.793	10.4	0.983	> 10
LB2241-RCC (kidney, adherent)	0.979	> 10	0.984	> 10.2	0.976	> 40	0.978	> 5.12	–	–	0.98	> 10.2	0.931	> 20	0.946	> 10
LS-123 (large intestine, adherent)	0.982	> 10	0.966	> 10.2	0.813	31.1	0.794	3.27	–	–	0.517	0.723	0.979	> 20	0.938	> 10
LU-139 (small cell lung carcinoma, suspension)	0.798	6.35	0.959	> 10.2	0.54	3.32	0.981	> 5.12	–	–	0.381	0.274	0.61	2.74	0.967	> 10
MHH-NB-11 (neuroblastoma, adherent)	0.956	> 10	0.973	> 10.2	0.745	13.7	0.852	4.56	0.826	3.43	0.471	0.53	–	–	–	–
MY-M12 (leukaemia, suspension)	0.978	> 10	0.807	6.12	0.444	1.72	0.249	0.0545	0.799	2.77	0.308	0.172	–	–	–	–
